Values joined by “and” are separate entries in the source; they are usually repeats but may differ in a detail not shown here. Equal values may be shown once. About 230 (0.21%) of roughly 110,000 compounds showed an effect of 50% or more. The list shows a part of the results.
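Also: 30 min substrate incubation versus DMSO and 10 µM JCP410 controls.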

DPAP1, sequence (Q8IIJ9 whole entry, looked up): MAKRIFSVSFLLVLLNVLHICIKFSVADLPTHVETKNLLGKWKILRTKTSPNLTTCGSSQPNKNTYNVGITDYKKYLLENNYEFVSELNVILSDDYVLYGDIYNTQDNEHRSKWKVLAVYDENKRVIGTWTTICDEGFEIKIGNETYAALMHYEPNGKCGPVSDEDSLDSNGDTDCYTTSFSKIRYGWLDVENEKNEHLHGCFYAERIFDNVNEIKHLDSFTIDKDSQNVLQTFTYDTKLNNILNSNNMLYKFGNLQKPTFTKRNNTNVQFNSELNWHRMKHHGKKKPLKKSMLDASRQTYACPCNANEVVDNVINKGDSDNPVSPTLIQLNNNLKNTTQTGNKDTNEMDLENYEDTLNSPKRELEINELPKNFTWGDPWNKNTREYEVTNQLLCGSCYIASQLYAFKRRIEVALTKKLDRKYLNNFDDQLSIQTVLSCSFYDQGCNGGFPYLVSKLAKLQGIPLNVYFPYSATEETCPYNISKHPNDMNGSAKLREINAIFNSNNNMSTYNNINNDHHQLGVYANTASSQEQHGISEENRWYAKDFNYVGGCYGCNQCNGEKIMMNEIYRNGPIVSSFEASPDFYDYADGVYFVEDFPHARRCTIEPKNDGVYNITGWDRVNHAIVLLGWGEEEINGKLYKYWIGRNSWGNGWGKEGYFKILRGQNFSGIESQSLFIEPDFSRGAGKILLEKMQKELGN

The assay addresses DPAP1 (Plasmodium falciparum, UniProt Q8IIJ9). Description: primary screen, percent inhibition; read by cleavage of a fluorogenic dipeptide substrate; higher = more effect of the substance. Also noted: species or system P. falciparum D10 trophozoite lysates; single well.
Turning to `O=C(CN(CCc1ccccc1)S(=O)(=O)c1ccc(Br)cc1)N1CCCCCC1`, the “% Inhibition @ 10 uM” value was found to be 9.51%.
For `CCOC(=O)N1CCc2c(sc3c2C(=O)NC(c2ccccc2)N3)C1` (stereo not drawn), the “% Inhibition @ 10 uM” value is -2.75%.
Turning to `Fc1cccc(Cl)c1CNCc1ccccc1Cl`, the “% Inhibition @ 10 uM” value is recorded as 3.99%.
As for `CSc1ccc(NC2CCN(C)CC2)cc1`, the “% Inhibition @ 10 uM” value is -1.82%.
Consider `NC(=O)CN(Cc1ccccc1F)S(=O)(=O)c1ccc(Cl)cc1`, for which the “% Inhibition @ 10 uM” value worked out at 1.03%.
With `NC(=O)C1CCN(C2CC(=O)N(c3ccc(OC(F)(F)Cl)cc3)C2=O)CC1` (stereo not drawn) the figure was -3.05%.
On to `O=C1C2C3CCC(C3)C2C(=O)N1O` (stereo not drawn), for which the “% Inhibition @ 10 uM” value amounted to 2.03%.
For the compound `Cc1ccc(-n2c(=S)[nH]c3sc4c(c3c2=O)CCCCC4)cc1`, the “% Inhibition @ 10 uM” value is on record as 11.5%.
With `Cc1cnc(NC(=O)CSc2nnc(-c3ccccc3)o2)s1`, the “% Inhibition @ 10 uM” value is given as 5.52%.
Regarding `CC(C)Nc1nc2c(-c3cccc(C(F)(F)F)c3)nnn2c2ccccc12`, the “% Inhibition @ 10 uM” value is recorded as -6.76%.
On to `Cn1c(=O)c2c(n(C)c1=O)n(Cc1ccccc1Cl)c(=O)n2Cc1ccc(Cl)cc1Cl`, for which the “% Inhibition @ 10 uM” value was -1.92%.
On to `CCCn1c(SC(C)CC)nc2c1c(=O)[nH]c(=O)n2C` (stereo not drawn), for which the “% Inhibition @ 10 uM” value is listed as -3.12%.
Next, `COc1cccc(C(=O)Nc2cccc(N)c2)c1OC`: 6.29% and -1.17%; `CCN(CC)CCN(CC)C1CCN(C)CC1`: -7.5%; `CC(C)OCCCNC(=O)Cn1ccc2cc(S(=O)(=O)N3CCCCC3)ccc21`: 0.359%.
On to `CCOC(=O)N1CCC(NC(=O)c2cc3c(Cl)nc4ccccc4c3s2)CC1`, for which the “% Inhibition @ 10 uM” value was 3.88%.
For the compound `CCOC(=O)C1=CN(C(C)C)C=C(C(=O)OCC)C1c1cc(OC)ccc1OC`, the “% Inhibition @ 10 uM” value is on record as -5.05%.
`Cc1nc2c(c(C)c1CCC(=O)NCCc1c[nH]c3ccccc13)c(=O)n(C)c(=O)n2C`: the “% Inhibition @ 10 uM” value is reported as -3.1%.
Next, `COc1ccc(CNC(=O)Cn2nc(C)n3c(cc4sccc43)c2=O)cc1`: -1.8%; `Cc1cc(C)nc(Nc2nc(-c3ccccc3)c(CC(=O)O)s2)n1`: -1.11%; `CCOc1ccc(-n2c(C)nc3cc(C(=O)NCc4ccc(F)cc4)ccc32)cc1`: 1.2%.
Next, `CSCCOC(=O)C1=C(C)NC(=O)NC1c1ccc(Cl)c(Cl)c1` (stereo not drawn): 2.7%.
Next, `COc1ccccc1NC(=O)CSc1nc2c(c(C(F)(F)F)c1C#N)CCC2`: -2.56%; `CCCCC(=O)Nc1nnc(Cc2ccccc2)s1`: -2.28%; `Cc1ccc(-c2ccc(=O)n(CCC(=O)NCc3ccc(F)cc3)n2)cc1`: 3.24%.
On to `CCC(C(=O)NCc1ccc(OC(C)C)cc1)n1nc(C)c2c(C)n(-c3ccccc3)nc2c1=O` (stereo not drawn), for which the “% Inhibition @ 10 uM” value was 3.99%.
With `COc1ccc(C(=O)N2c3ccccc3C(C)(c3ccccc3)CC2(C)C)cc1` (stereo not drawn) the figure was -2%; with `Cc1nn(-c2ccccc2)c(-n2cccc2)c1C(=O)N1CCN(C2CCCCC2)CC1`, 0.137%; with `Cc1ccc(S(=O)(=O)Nc2cccc3ccc(-n4nc(C)cc4C)nc23)cc1`, 4.88%.
Turning to `Clc1cc2nc3sc4nc5ccccc5n4c3nc2cc1Cl`, the “% Inhibition @ 10 uM” value is given as -2.23%.
On to `Cc1nn(CC(=O)NCCCc2ccccc2)c(=O)c2cc3cc(F)ccc3n12`, for which the “% Inhibition @ 10 uM” value was -5.32%.
In the case of `O=C(NC1(C(F)(F)F)NC(=O)N(Cc2cccnc2)C1=O)C1CC1` (stereo not drawn), the “% Inhibition @ 10 uM” value is recorded as -0.834%.
Turning to `CC(C)C[C@H](NC(=O)OC1CCc2ccccc21)C(=O)NCC#N` (stereo partly drawn), the “% Inhibition @ 10 uM” value is recorded as -3.04%.
As to `CCCCCC(=O)N(CN1C(=O)c2ccccc2C1=O)c1ccc(OC)cc1`, the “% Inhibition @ 10 uM” value is on record as -3.03%.
As to `Cc1ccc2c(C)nc(NC3=NCN(C4CCCC4)CN3)nc2c1`, the “% Inhibition @ 10 uM” value is recorded as -1.33%.
As to `CC(=O)c1ccc(N2CCN(Cc3ccc(Br)o3)CC2)cc1`, the “% Inhibition @ 10 uM” value came out at 5.35%.
In the case of `COc1ccc2[nH]c3c(c2c1)CCNC3CC(=O)O` (stereo not drawn), the “% Inhibition @ 10 uM” value is listed as -5.51%.
As for `CCOC(=O)c1sc(NC(=O)CCn2nnc3ccccc32)c(C(=O)OCC)c1C`, the “% Inhibition @ 10 uM” value is recorded as 3.81%.
`Cc1ccc(C)c(OCC(=O)Nc2ccc(S(=O)(=O)N3CCCCCC3)cc2)c1`: the “% Inhibition @ 10 uM” value is recorded as -2.76%.
Turning to `CCc1nnc(NC(=O)CSc2nnc(-c3c[nH]c4ccccc34)n2C)s1`, the “% Inhibition @ 10 uM” value was found to be 2.12%.
Next, `COc1cccc(NC(=O)COc2ccc(Br)c(C)c2)c1`: -2.29%; `CC(=O)c1ccc(C(=O)C(=O)c2ccccc2)cc1`: -4.02%; `COC(=O)c1cc(C2CC2)nc2c1c(C)nn2-c1cccc(Cl)c1C`: 1.77%.
With `COc1ccc(S(=O)(=O)N(CC(N)=O)c2ccc(C)cc2)cc1Br`, the “% Inhibition @ 10 uM” value is on record as -17.7%.
As to `CCOC(=O)C1=C(O)/C(=C\c2cccc(Cl)c2)N=C1C`, the “% Inhibition @ 10 uM” value is reported as -1.6%.
As to `Cc1ccc(NC(=O)CN2C(=O)S/C(=C\c3ccccc3O)C2=O)cc1`, the “% Inhibition @ 10 uM” value stood at 50.5%.
In the case of `O=C(Cn1ncn2nc(-c3cccs3)cc2c1=O)NCCCc1ccccc1`, the “% Inhibition @ 10 uM” value came out at 0.623%.
Next, `Cc1ccc(C(=O)N2CCN(c3ccccc3)CC2)cc1S(=O)(=O)N1CCCCC1`: -2.91%.
For `Cc1ccc(C(C)C)c(OCCn2cc(C=C3C(=O)NC(=O)NC3=O)c3ccccc32)c1`, the “% Inhibition @ 10 uM” value was 3.72%.
As for `c1ccc(OCc2ccc(CCCN3CCOCC3)cc2)cc1`, the “% Inhibition @ 10 uM” value came out at 5.7%.
Take `Cc1ccc(C)c(N(CC(=O)Nc2ccc(C)c(C)c2)S(C)(=O)=O)c1`: the “% Inhibition @ 10 uM” value was found to be 3.74%.
Take `CC(C)c1ccc(OCC(O)CNC2CC(C)(C)NC(C)(C)C2)cc1` (stereo not drawn): the “% Inhibition @ 10 uM” value was 2.86%.
Take `C=CCN1C(=O)C2C3C=CC(C2C1=O)C1C2C(=O)N(CC=C)C(=O)C2C31` (stereo not drawn): the “% Inhibition @ 10 uM” value was -3.77%.
For `COCC(C)NC(=O)C1=CC(c2ccc(C)cc2)=NS(=O)(=O)N1C` (stereo not drawn), the “% Inhibition @ 10 uM” value is recorded as -1.06%.
Consider `C=CCOc1ccc(/C=C2\SC(=O)N(C)C2=O)cc1Br`, for which the “% Inhibition @ 10 uM” value is -1.26%.
Regarding `COc1ccc(C2OCC3C(C)C=C(C)C2C3C)cc1` (stereo not drawn), the “% Inhibition @ 10 uM” value is on record as -3.37%.
`Cc1cc(C)c2c(CC(=O)NCc3ccncc3)coc2c1`: the “% Inhibition @ 10 uM” value is listed as -0.671%.
Regarding `O=c1c2sc3nc4ccccc4cc3c2ncn1-c1ccccc1`, the “% Inhibition @ 10 uM” value is on record as 2.38%.
Regarding `CCOc1ccccc1NC(=O)CN(c1ccccc1C)S(=O)(=O)c1ccc(C)cc1`, the “% Inhibition @ 10 uM” value is -8.67%.
Next, `Cc1onc(-c2c(Cl)cccc2Cl)c1C(=O)OCc1ccc2c(c1)OCO2`: -8.44%; `COc1ccc(C2=NOC(C(=O)N3CCOCC3)C2)cc1OC` (stereo not drawn): -2.16%.
With `COC(=O)c1[nH]c2ccc(C)cc2c1-n1cccc1` the figure was 3.29%.
With `CC1=CC2=NC(=O)/C(=C\c3ccc(-c4ccc(C)c(Cl)c4)o3)C(=N)N2O1`, the “% Inhibition @ 10 uM” value is reported as 3.63%.
As to `CCCc1nc2ccccc2c(=O)n1-c1ccc(C)cc1`, the “% Inhibition @ 10 uM” value came to 4.02%.
In the case of `O=C1OCCC1Sc1nnc(-c2cccc(Cl)c2)o1` (stereo not drawn), the “% Inhibition @ 10 uM” value was -1.69%.
For the compound `O=c1cccc2n1C[C@H]1C[C@@H]2CN(C2CCC(c3ccccc3)CC2)C1` (stereo partly drawn), the “% Inhibition @ 10 uM” value is listed as -0.13%.
Turning to `CCN(CC)CCNC(=O)CS(=O)(=O)Cc1nc(-c2ccccc2C)oc1C`, the “% Inhibition @ 10 uM” value was -1.89%.
Consider `Cn1c(NCc2ccco2)nc2c1c(=O)n(Cc1ccccc1)c(=O)n2C`, for which the “% Inhibition @ 10 uM” value is -5.14%.
Consider `Cc1cc(C)c(Cn2c(=O)n(CC(=O)NCCc3ccccc3)c(=O)c3sccc32)c(C)c1`, for which the “% Inhibition @ 10 uM” value is -8.56%.
Regarding `COc1ccc(OC)c(CCNC(=O)Cn2ncc3c4ccccc4n(C)c3c2=O)c1`, the “% Inhibition @ 10 uM” value was -0.0741%.
On to `C#CC(OC(=O)c1ccccc1C(=O)O)c1ccccc1` (stereo not drawn), for which the “% Inhibition @ 10 uM” value was -0.128%.
With `NC(=O)c1c(NC(=O)c2ccc(-c3ccccc3)cc2)sc2c1CCCC2` the figure was -1.65%.
Next, `COc1ccc(S(=O)(=O)N(CC(=O)NC2CCCC2)c2ccc(C)cc2)cc1Br`: -0.641%.
Turning to `Cc1cc(=O)n(CC(=O)NCc2ccc3c(c2)OCO3)c2c1c(C)nn2C`, the “% Inhibition @ 10 uM” value was 2.65%.
Regarding `CCN(CC)CCNC(=O)c1sc2nc(-c3ccccc3)cn2c1C`, the “% Inhibition @ 10 uM” value is listed as -0.138%.
For `Cc1nnc2ccc(N3CCC(C(N)=O)(N4CCCCC4)CC3)nn12`, the “% Inhibition @ 10 uM” value is -0.692%.
Take `COc1cc(NC(=O)C(c2ccccc2)c2ccccc2)c(OC)cc1Cl`: the “% Inhibition @ 10 uM” value is listed as 0.605%.
For `COc1ccc(CNCc2cc(OC)c(OC)c(OC)c2)cc1`, the “% Inhibition @ 10 uM” value was found to be 6.91%.
For `O=C(O)c1ccc(Oc2ccc(C(=O)c3ccc(C(=O)O)cc3)cc2)cc1`, the “% Inhibition @ 10 uM” value is reported as -1.45%.
Next, `Cc1ccsc1-c1nc(CSCC(=O)NC2CCC(C)CC2)c(C)o1` (stereo not drawn): -2.85%.
Next, `Cc1cccc(NC(=O)COc2ccc(Br)cc2)n1`: -10.3%; `Cc1ccc(-c2nc(C(=O)NCCN3CCN(Cc4ccccc4)CC3)c3n2CCCCC3)cc1`: -3.17%.
Next, `CC1=C(C(=O)Nc2ccc(F)cc2F)C(c2ccccn2)C2=C(O)CC(C)(C)CC2=N1` (stereo not drawn): 3.46%; `Cc1ccc(C)c(N2CCN(Cc3ccc(-c4ccc(Cl)cc4)o3)CC2)c1`: 1.57%.
Consider `CCOC(=O)c1sc(NC(=O)CCN2C(=O)c3ccccc3C2=O)c(C(=O)OCC)c1C`, for which the “% Inhibition @ 10 uM” value is recorded as 0.736%.
Turning to `COc1ccccc1NC(=O)C(C)Oc1ccccc1C` (stereo not drawn), the “% Inhibition @ 10 uM” value is -0.425%.
Turning to `Cc1nnc(N2C(=N)S/C(=C\c3c(-c4ccccc4)n(C)c4ccccc34)C2=O)s1`, the “% Inhibition @ 10 uM” value is given as -5.62%.
`COc1cccc(CN2CCN(Cc3ccc(OC)cc3OC)CC2)c1`: the “% Inhibition @ 10 uM” value was -0.48%.
For `CC1CC(C)CN(C(=O)c2cc3ccc4cccnc4c3[nH]2)C1` (stereo not drawn), the “% Inhibition @ 10 uM” value is recorded as -1.25%.
Turning to `CC1C(c2ccccc2)N(C)C(c2ccccc2)C(C)C1(O)c1ccc(F)cc1` (stereo not drawn), the “% Inhibition @ 10 uM” value was -3.35%.
On to `CC(Oc1ccc(C(=O)NC2CCCCC2)cc1)C(=O)O` (stereo not drawn), for which the “% Inhibition @ 10 uM” value is recorded as -4.33%.
Consider `O=C1CC(c2ccccc2F)c2cc3c(cc2N1)OCO3` (stereo not drawn), for which the “% Inhibition @ 10 uM” value is on record as -5.26%.
Turning to `NC(=O)c1ccccc1NC(=O)c1ccccc1`, the “% Inhibition @ 10 uM” value is 0.98%.
Regarding `CC(=O)Nc1c(N2CCCCC2)cnn(-c2ccccc2)c1=O`, the “% Inhibition @ 10 uM” value amounted to 4.71%.
With `O=C(Cc1nc2ccccc2[nH]1)N1CCCC1`, the “% Inhibition @ 10 uM” value was -2.44%.
Next, `CC(C)(C)OCC(NC(=O)OCc1ccccc1)C(=O)O` (stereo not drawn): 4.11%.
With `O=C(COc1ccccc1)Nc1nc(-c2ccc(F)cc2F)cs1` the figure was -7.09%.
`CCCCCC(=O)Nc1ccc(N(C)C)cc1`: the “% Inhibition @ 10 uM” value is -2.19%.
Consider `Cc1ccc(C2CC(C(F)(F)F)n3ncc(C(=O)NCc4cnn(C)c4C)c3N2)cc1` (stereo not drawn), for which the “% Inhibition @ 10 uM” value is 4.22%.

(Values after publication PMC6919601, “Identification of Plasmodium dipeptidyl aminopeptidase allosteric inhibitors by high throughput screening” (PLoS ONE, 2019).)
